The whole screen tested about 50,000 compounds, of which about 800 (1.6%) showed an effect of 50% or more. The list shows a part of the results.
biological target: Bcl-2-like protein 10 (Homo sapiens) (UniProt Q9HD36); assay: Phenotype converters, Bcl-B/TR3 peptide binding displacement, primary biochemical FP (AID 1240); conditions: GST-Bcl-B / FITC-TR3 peptide fluorescence polarization; stronger effect = higher value; compound at 3.75 mg/L;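 also: 0% = Bcl-B with tracer peptide and DMSO and 100% = tracer peptide lacking Bcl-B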
UniProt Q9HD36, sequence (Q9HD36 whole entry, looked up): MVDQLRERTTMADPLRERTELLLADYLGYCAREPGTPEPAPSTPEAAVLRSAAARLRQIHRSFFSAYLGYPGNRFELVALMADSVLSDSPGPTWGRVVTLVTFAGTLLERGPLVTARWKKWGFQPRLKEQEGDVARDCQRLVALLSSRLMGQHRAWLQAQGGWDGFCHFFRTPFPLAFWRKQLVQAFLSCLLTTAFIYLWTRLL

SMILES | displacement
Cc1cc(/C=C2/SC(=S)NC2=O)c(C)n1-c1ccccc1 | -39.7%
Cc1cccc(-n2c(C)cc(/C=N/NC(=O)c3ccc(CN4CCOCC4)cc3)c2C)c1 | -7.2%
O=C(/C=C/c1ccc(F)cc1)c1nc2ccccc2s1 | -6%
COc1cccc(/C=C2\SC(=S)N(NC(=O)c3ccccc3Br)C2=O)c1 | -63.2%
O=C(Nc1ccc(NC(=O)c2ccc(-c3ccc([N+](=O)[O-])cc3)o2)cc1)c1ccco1 | 11%
CCN1C(=O)c2cccc3c(NC(=O)c4ccc(C(=O)c5ccccc5)cc4)ccc1c23 | 101%
COc1ccc(NC(=O)CN(c2cccc(Cl)c2)S(C)(=O)=O)cc1 | 4.5%
CCOc1ccc(NC(=O)c2c(NC(=O)CC)sc3c2CCC(C)C3)cc1 (configuration not stated) | 6.6%
CCOc1ccc(C(=O)Nc2ccc(OC(F)(F)F)cc2)cc1Cl | 1.7%
COc1cc(C2C3=C(CC(C)(C)CC3=O)OC3=C2C(=O)CC(C)(C)C3)ccc1OCc1ccc([N+](=O)[O-])cc1 | 11.2%
C=CCc1cccc2cc(C(=O)N3CCN(c4ccccn4)CC3)c(=O)oc12 | 8%
CCc1ccc(N2C(=O)NC(=O)/C(=C\c3ccc(OCC(=O)O)c(OC)c3)C2=O)cc1 | 9.9%
O=C(CNC(=O)c1ccccc1)c1ccc(Br)cc1 | -6.3%
COc1ccc(COC(=O)C2=C(C)NC3=C(C(=O)CC(C)(C)C3)C2c2ccc(F)c(F)c2)cc1 (configuration not stated) | 9.5%
CC1(C)CC(=O)C(N=Nc2cc(C(=O)Nc3ccccc3)ccc2Cl)=C(O)C1 | 6.6%
CC(=O)OCCCN1C(=O)c2ccc([N+](=O)[O-])cc2C1=O | 8.6%
C/C(=N\N=C\c1cccc([N+](=O)[O-])c1)C1C(=O)c2ccccc2C1=O | 14.8%
COc1ccc(Cl)cc1NCN1C(=O)S/C(=C/c2ccccc2)C1=O | 9.5%
O=C(CN1C(=O)c2ccccc2C1=O)Nc1ccc(Br)cc1 | 2.6%
O=c1[nH]c(=O)c2nc3cc([N+](=O)[O-])ccc3nc2[nH]1 | 42.6%
COc1ccccc1NC1=C(Cl)C(=O)N(c2cccc(C)c2)C1=O | -9.4%
O=C(/C=C/c1ccco1)c1cccs1 | 3.3%
COc1ccc(OC)c(/C=N/NC(=O)C(=O)N2CCCCCC2)c1 | -11%
Cc1ccc(N=Cc2c(O)n(-c3ccccc3C)c(=O)[nH]c2=O)cc1 | 9.2%
COc1ccc(CN2CCN(Cc3cccn3C)CC2)c(OC)c1 | 14.4%
Cc1cc([N+](=O)[O-])ccc1N1C(=O)C2C3c4ccccc4C(c4ccccc43)C2C1=O (configuration not stated) | 12%

SMILES | displacement
CCc1ccc(N2CC(C(=O)Nc3cccc4ccccc34)CC2=O)cc1 (configuration not stated) | 9.5%
O=C(Nc1ncc(Cc2ccc(Cl)cc2Cl)s1)c1ccccc1 | 4.1%
CC(=O)OC(c1c(F)c(F)c(F)c(F)c1F)c1c(F)c(F)c(F)c(F)c1F | 3%
CC(=O)N(Cc1ccncc1)c1cccc2ccccc12 | 2.4%
COc1cccc(/C=C2\N=C(c3ccccc3Br)OC2=O)c1 | 33.4%
COc1ccccc1N1CCN(C2CC(=O)N(c3ccc(C(=O)O)cc3)C2=O)CC1 (configuration not stated) | -3.7%
Cc1ccc(CN=Cc2ccc(OC3CSC3)cc2)cc1 | -0.2%
CCOP(=O)(OCC)C(Nc1cc(Cl)cc(Cl)c1)c1ccc(Br)cc1 (configuration not stated) | 1.9%
COc1cccc(C2C(C(=O)/C=C/c3ccccc3)=C(O)C(=O)N2CCCCCC(=O)O)c1 (configuration not stated) | -2.9%
Cc1ccc(N2NC(=O)/C(=C/c3ccccc3)C2=O)cc1C | 4.6%
O=C(O)c1ccc(SC(C(=O)O)c2ccccc2)cc1 (configuration not stated) | 11.2%
COC(=O)C1=NNC2C(=O)N(Cc3ccccc3)C(=O)C12 (configuration not stated) | -1.6%
COc1ccc(CCNC(=O)COc2ccccc2C)cc1OC | 4.5%
Cc1cc(C)c2oc(-c3ccc(C)c(NC(=O)c4cccc([N+](=O)[O-])c4C)c3)nc2c1 | 4%
COC(=O)c1c(NC(=O)C2C3CCC(C3)C2C(=O)O)sc(C)c1-c1ccc(C)cc1 (configuration not stated) | -1.1%
C(=C\c1nnc(-c2ccccc2)o1)/c1ccccc1 | 4.9%
CC1(C)C(=O)N(Cc2ccc(Cl)c(Cl)c2)c2ccccc2N1C(=O)c1ccc([N+](=O)[O-])cc1 | 0.4%
O=C1S/C(=C\c2ccccc2)C(=O)N1Cc1ccccc1 | 1.1%
Cc1ccc(N2C(=O)c3cccc([N+](=O)[O-])c3C2=O)c(C)c1 | 4.5%
CN(C)c1ccc(/C=N/OC(=O)Nc2ccccc2)cc1 | 1.6%
COc1ccc(C(=O)NC(Nc2ccc(Cl)cc2)C(Cl)(Cl)Cl)cc1OC (configuration not stated) | 10.8%
Cc1ccccc1-c1nc2cc(NC(=O)c3ccccc3[N+](=O)[O-])ccc2o1 | 15%
COCCOC(=O)C1=C(C)NC(=O)NC1c1ccc(C)s1 (configuration not stated) | -11%
COc1ccc2c(c1)C1C=CCC1C(c1cccc([N+](=O)[O-])c1)N2 (configuration not stated) | -2.3%
O=C(Nc1ccc(I)cc1)C1c2ccccc2Oc2ccccc21 | 1.4%
C(=N/Nc1nc2ccccc2s1)/c1ccc(N2CCOCC2)cc1 | -18.2%
